According to PubChem BioAssay AID1745845 (National Center for Advancing Translational Sciences (NCATS), 2022):
Among all 360,000 compounds or so, about 2,600 (0.72%) were called active. Inconclusive results, whose numbers are uncertain, are shown with a selection of clear calls. The call rests on the fitted dose curve; in most records, active means well fitted inhibition curve with a large enough effect; inconclusive means small, poorly fitted or top-dose-only effect; inactive means no such curve, though single readings can be large or run the other way. Potencies of inconclusive entries are doubtful fits and often do not repeat.
On the % scale 0 is the no-effect control and ±100 the full control effect; potency means the concentration at half of the fitted maximal effect; tags describe the fitted curve by direction and shape.

Experiment: Primary qHTS for Inhibitors of ATXN expression; further: nearly all actives have a fitted effect of over 55% in size
Conditions: HEK-293 ATXN2-luciferase reporter, luminescence, 24 h; activity change, negative = inhibition: at 57 µM (top of the series)
Procedure, shortened: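 ATXN2-luciferase reporter cells (luciferase flanked by upstream and downstream ATXN2 gene portions) were treated 24 h at 37 °C with compounds at up to 57 uM. SteadyGlo luminescence gave expression; GF-AFC fluorescence gave viability.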
In the case of `CCOC(=O)c1cccc(Nc2c3c(nc4ccccc24)CCC3)c1`, the Potency is reported as inconclusive: 12.6 µM [inhibitor, partial curve, poor fit]. In the case of `CC(C)c1ccc(NC(=O)Nc2nc(C(N)C(C)C)cs2)cc1` (centres undefined), the Potency is reported as inconclusive: 35.5 µM [inhibitor, single point]. With `CCOC(=O)N(C)c1c(CC)nc2c(OCc3ccccc3OC)cccn12` the Potency was inconclusive: 22.4 µM [inhibitor, single point]. For `CCc1ccc(CNCc2c(C(=O)O)n(Cc3cccc(F)c3)c3cc(OC)ccc23)cc1`, the Potency was inconclusive: 28.2 µM [inhibitor, single point]. With `COc1ccc(-n2c(C)cc(C(=O)COc3ccc(C)nc3[N+](=O)[O-])c2C)cc1` the “activity change, negative = inhibition” value was inactive: -14.7%. For `COC/C=C/C1=CC(=O)C[C@H](c2ccc3c(c2)OCO3)C1`, the “activity change, negative = inhibition” value was inactive: -34.2%. For `COc1cccc2c1CCc1c-2nc2ccccc2c1C(=O)O`, the activity change, negative = inhibition was inconclusive: -46.5% [inhibitor]. In the case of `Cc1cccc(CN2CCC(C(=O)Nc3cccc(-c4cccc(F)c4)c3)CC2)n1`, the Potency is reported as inconclusive: 11.2 µM [inhibitor, partial curve, poor fit]. With `CC(C)Nc1nc(NCCOc2ccccc2Cl)c2sccc2n1` the Potency was inconclusive: 31.6 µM [inhibitor, single point]. For `CC1=C(C(=O)OCc2ccc3c(c2)OCO3)C(c2ccccc2OCc2ccccc2)NC(=O)N1` (centres undefined), the Potency was inconclusive: 15.8 µM [inhibitor, partial curve, poor fit]. With `CCc1cc2c(=O)n(-c3ccc(C)cc3)cnc2s1` the “activity change, negative = inhibition” value was inactive: 33.2%. For `COc1ccc(-c2nnc(C3CCN(C(=O)c4ccccc4F)CC3)o2)cc1`, the Potency was active: 3.16 µM. For `O=C1CCCC2=C1C(c1ccc(Cl)cc1)C1C(=O)c3ccccc3C1=N2` (centres undefined), the Potency was inconclusive: 39.8 µM [inhibitor, single point]. With `Cc1cc(N2CCN(Cc3nc(-c4ccc(Cl)cc4)oc3C)CC2)cc(C)n1` the Potency was inconclusive: 15.8 µM [inhibitor, partial curve]. With `CCC1=NN(C(=O)c2ccc(Cl)cc2)C(O)(c2ccc(C)cc2)C1` (centres undefined) the “activity change, negative = inhibition” value was inactive: 4.6%. With `O=C(NCCc1csc(-c2ccc(Cl)cc2)n1)c1cccs1` the Potency was inconclusive: 31.6 µM [inhibitor, single point]. For `C[C@H](NC(=O)c1[nH]cnc1C(=O)Nc1ccc(Cl)cc1)c1ccccc1`, the Potency was inconclusive: 35.5 µM [inhibitor, single point]. With `CC(=O)Oc1ccccc1C(=O)C=Cc1cccc([N+](=O)[O-])c1` the Potency was inconclusive: 39.8 µM [inhibitor, single point]. With `O=C(COC(=O)c1cccnc1)Nc1ccc2c(c1)OCO2` the Potency was inconclusive: 37.7 µM [inhibitor, single point].
